Measurements reported in PMC4336329 (PLoS ONE, 2015).
Out of some 310,000 compounds screened, about 14,000 (4.5%) showed an effect of 50% or more. The effect is printed as a negative number. Some of the results follow.

molecular target: human ether-à-go-go-related gene (hERG) potassium channel (human, UniProt Q12809); experiment: primary screen, population patch clamp on CHO cells stably expressing hERG
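Further: peak tail current of the secondary pulse compared with the same well before compound.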

Sequence of human ether-à-go-go-related gene (hERG) potassium channel (Q12809 whole entry, looked up): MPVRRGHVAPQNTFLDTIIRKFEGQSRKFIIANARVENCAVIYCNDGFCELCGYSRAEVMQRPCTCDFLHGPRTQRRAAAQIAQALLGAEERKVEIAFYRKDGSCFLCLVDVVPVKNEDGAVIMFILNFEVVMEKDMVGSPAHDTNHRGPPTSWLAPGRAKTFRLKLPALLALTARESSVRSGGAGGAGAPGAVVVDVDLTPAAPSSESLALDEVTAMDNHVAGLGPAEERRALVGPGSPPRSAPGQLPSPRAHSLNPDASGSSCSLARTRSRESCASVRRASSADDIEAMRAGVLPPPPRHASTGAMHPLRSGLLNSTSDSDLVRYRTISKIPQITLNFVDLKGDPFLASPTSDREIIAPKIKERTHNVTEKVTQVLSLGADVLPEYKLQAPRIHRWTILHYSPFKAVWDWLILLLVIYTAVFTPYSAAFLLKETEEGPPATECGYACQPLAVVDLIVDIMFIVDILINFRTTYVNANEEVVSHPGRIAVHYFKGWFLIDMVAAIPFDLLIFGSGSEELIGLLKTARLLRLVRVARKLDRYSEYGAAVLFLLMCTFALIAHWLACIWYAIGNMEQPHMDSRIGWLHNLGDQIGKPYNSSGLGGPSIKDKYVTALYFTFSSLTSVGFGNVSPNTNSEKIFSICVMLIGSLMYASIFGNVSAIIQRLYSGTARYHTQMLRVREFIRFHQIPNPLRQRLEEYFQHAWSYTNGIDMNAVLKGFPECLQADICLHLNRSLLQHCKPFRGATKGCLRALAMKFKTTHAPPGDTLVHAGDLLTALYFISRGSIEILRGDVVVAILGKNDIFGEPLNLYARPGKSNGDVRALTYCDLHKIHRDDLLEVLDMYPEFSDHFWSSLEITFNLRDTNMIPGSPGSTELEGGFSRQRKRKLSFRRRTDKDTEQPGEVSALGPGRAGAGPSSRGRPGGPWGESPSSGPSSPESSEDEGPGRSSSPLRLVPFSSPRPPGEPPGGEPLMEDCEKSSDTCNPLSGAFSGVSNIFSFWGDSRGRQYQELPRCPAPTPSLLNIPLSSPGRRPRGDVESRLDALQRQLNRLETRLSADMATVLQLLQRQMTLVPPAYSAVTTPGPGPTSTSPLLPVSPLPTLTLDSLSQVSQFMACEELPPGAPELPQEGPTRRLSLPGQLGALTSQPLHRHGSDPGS

Row | Structure (SMILES) | hERG current change (%, negative = inhibition) at 10uM
1 | COc1ccc(S(=O)(=O)N2CCN(C(=O)c3cc(-c4ccc(C)cc4)n[nH]3)CC2)cc1 | -12.9%
2 | Cc1nc(-c2ccccc2)sc1-c1nnc(C2CC2)o1 | -22.6%
3 | c1cc(-c2cccs2)nc(-c2cccs2)c1 | -3.77%
4 | CC(C)c1ccc(N2C(=O)NC(=O)/C(=C\C=C\c3ccco3)C2=O)cc1 | 16.4%
5 | COC(=O)CN1C(=O)C2(OCCCO2)c2ccccc21 | -7.31%
6 | CC1CN(C(=O)Cn2cc(S(=O)(=O)CC(=O)N(C)c3ccccc3)c3ccccc32)CC(C)O1 (stereo not drawn) | 16.3%
7 | Cc1cccc(OCC(=O)NCc2ccccc2)c1 | 13.6%
8 | COCCN(C(=O)COC(=O)CCn1c(C)csc1=O)c1c(N)n(Cc2ccccc2)c(=O)[nH]c1=O | 12.7%
9 | CCOC(=O)C(=CNNc1c(C)csc1C(=O)OC)C(=O)OCC | 14.9%
10 | N#Cc1c2n(c3c(=O)n(Cc4ccccc4Cl)cnc13)CCCCC2 | -18.8%
11 | CCCn1c2ccccc2c2nnc(SCC(=O)Nc3nnc(CC(=O)OCC)s3)nc21 | -6.4%
12 | Cc1ccc(OC(C)C(=O)N2CCCc3ccccc32)cc1 (stereo not drawn) | -16.3%
13 | CN1CCCN(c2ncnc3scc(-c4ccc(F)cc4)c23)CC1 | -21.9%
14 | C=C(C)Cn1c(CCNC(=O)CC)nc2ccccc21 | -5.61%
15 | CCN(c1ccccc1)S(=O)(=O)c1ccc(C(=O)N(CCCN(C)C)c2nc3c(C)cccc3s2)cc1.Cl | -34.7%
16 | Cc1ccc(C(=O)N2CCN(c3ccc(C(F)(F)F)cn3)CC2)cc1 | -0.62%
17 | CN(C)S(=O)(=O)c1cccc(NC(=O)COC(=O)/C=C/c2ccc([N+](=O)[O-])cc2)c1 | -20.8%
18 | CCSc1nc2sc3c(c2c(=O)[nH]1)CCc1ccccc1-3 | 6.61%
19 | Cc1cc(Br)ccc1OCCNCc1ccccc1.O=C(O)C(=O)O | -14.6%
20 | Cc1cccc(C(=O)OCc2cc(=O)oc3c(C)c(C)ccc23)c1O | -5.7%
21 | Cc1c(Cl)ccc2c(C(N)=O)cc(-c3ccccn3)nc12 | 23.6%
22 | O=C(Oc1cccc(-n2cnnn2)c1)C1CCCCC1 | -6.63%

Row | Structure (SMILES) | hERG current change (%, negative = inhibition) at 10uM
23 | CCOC(=O)C1CCN(C(=O)C(C)Oc2ccc(Br)cc2)CC1 (stereo not drawn) | -16.1%
24 | C=CCNCC(=O)NN=C(c1ccccc1)c1ccccc1 | -68.5%
25 | Cc1nc(CS(=O)c2ccccc2)cc(N2CCOCC2)n1 (stereo not drawn) | 7.23%
26 | CC(=O)Nc1ccc(S(=O)(=O)NC(C)C(=O)NC(C)c2ccccc2)cc1 (stereo not drawn) | 15.3%
27 | O=C(CSc1ccc(-c2ccco2)nn1)Nc1ccc(F)cc1F | -65.8%
28 | COC(=O)[C@@]1(Cc2ccc(F)cc2)[C@H]2c3cc(C(=O)N4CCCC4)n(CCO)c3C[C@H]2CN1C(=O)c1ccccc1 | -51.4%
29 | CN(C1CCCCC1)S(=O)(=O)CCNC(=O)c1ccccc1 | 4.76%
30 | COc1cc(NC(=O)c2ccc3c(=O)n(Cc4ccco4)c(=S)[nH]c3c2)cc(OC)c1OC | 8.2%
31 | CCOC(=O)Cc1csc(N/C(=N/S(=O)(=O)c2ccc(Cl)cc2)c2ccccc2)n1 | 12.9%
32 | Cc1ccc(-c2csc3ncn(Cc4ccc(C(=O)O)cc4)c(=O)c23)cc1C | 4.52%
33 | N#Cc1cc2c(nc1Cl)CCC2 | 8.4%
34 | CC1(C)C=Cc2cc3ccc(=O)oc3cc2O1 | 3.51%
35 | O=C(OCc1cc(=O)n2ccsc2n1)c1ccc(O)cc1O | -12.7%
36 | COc1ccc(-c2cc(C(F)(F)F)nc(-n3ccnc3)n2)cc1 | 7.99%
37 | COc1ccc(NC(=O)CC2C(=O)N(C)C(=S)N2CCc2ccccc2F)cc1 (stereo not drawn) | -0.536%
38 | COc1cccc(-c2nc(N3CCCCC3)c3ccccc3n2)c1O | 18%
39 | COc1cc2c(cc1OC)CN(C(=O)CN1C(=O)c3ccc([N+](=O)[O-])cc3C1=O)CC2 | 2.4%
40 | O=C(COc1cccnc1[N+](=O)[O-])NCc1ccco1 | -11.1%
41 | COc1ccccc1N1CCN(C(=O)c2ccc3c(c2)CCN3S(=O)(=O)c2ccccc2)CC1 | 7.45%
42 | CCOc1ccc(CN2CCN(CCCc3ccccc3)CC2CCO)cc1 (stereo not drawn) | -76%
43 | CCO[C@@H]1OC(C(=O)N2CCOCC2)=C[C@H](c2cn(C(C)=O)c3ccccc23)[C@H]1CCCO | -20.3%
44 | O=[N+]([O-])c1cccnc1SCc1c(F)cccc1Cl | 11%

Row | Structure (SMILES) | hERG current change (%, negative = inhibition) at 10uM
45 | CSc1nc(NNC=O)cc(Oc2ccc(NC(C)=O)cc2)n1 | 14.8%
46 | Cc1ccc(S(=O)(=O)N2CCC(C(=O)OC(C)C(=O)NCc3ccc4c(c3)OCO4)CC2)cc1 (stereo not drawn) | -37.2%
47 | Cn1nccc1C(=O)N1CCCC(C(=O)c2ccc(C(F)(F)F)cc2)C1 (stereo not drawn) | 6.14%
48 | O=C(O)C1C2CC2CN1C(=O)c1ccc(Cl)cc1Cl (stereo not drawn) | 17%
49 | CS(=O)(=O)c1nc(-c2ccco2)cc(C(F)(F)F)n1 | 0.442%
50 | CC1CCCC(C)N1C(=O)COc1ccccc1F (stereo not drawn) | 13.2%
51 | Cc1ccc(C(OC(=O)c2ccco2)C(=O)NC2CCCC2)cc1 (stereo not drawn) | 10.2%
52 | COc1ccc(CCNC(=O)CC2C(=O)NCCN2CC(C)(C)C)cc1 (stereo not drawn) | -4.67%
53 | O=C(CN1C(=O)NC(c2ccccc2)(c2ccccc2)C1=O)N1CCN(c2ccc(F)cc2)CC1 | -68.4%
54 | COc1ccc(-n2c(C)cc(C(=O)CSc3nnc(-c4cccs4)o3)c2C)cc1 | -20.7%
55 | Clc1ccc(-c2cn3c(n2)SCC3)cc1 | -19.9%
56 | O=C(Cc1ccccc1)N/N=C/c1ccc(-c2ccc([N+](=O)[O-])cc2)o1 | 4.21%
57 | COc1c2c(nc3ccccc13)OC(C(C)(O)CO)C2 (stereo not drawn) | 10%
58 | Cc1ccccc1CN(C)CC(=O)Nc1ccccc1Oc1ccccc1 | 15.6%
59 | O=C(CN(C(=O)C1COc2ccccc2O1)c1ccccc1)NCC1CCCO1 (stereo not drawn) | -15.6%
60 | Cc1cccc(NC(=O)Cn2c(O)c(N=NC(=O)c3ccncc3)c3ccccc32)c1 | 4%
61 | COc1ccc(Nc2nc(-c3cccs3)nc3ccccc23)cc1S(=O)(=O)N1CCOCC1 | -17.5%
62 | COC(=O)c1ccc(C23CC4(C2)[C@H](CN(Cc2ccc(C(F)(F)F)cc2)[C@@H]4c2ccccc2)C3c2ccccc2)cc1 (stereo partly drawn) | 7.29%
63 | COc1ccc(NC(=O)Cn2nnc(C(=O)NCc3ccco3)c2N)c(OC)c1 | 20%
64 | CCOc1ccc(NC(=O)CSc2n[nH]c(N)n2)c([N+](=O)[O-])c1 | -6.62%
65 | Cc1ccc2[nH]cc(C(=O)CN3CCOCC3)c2c1 | 19.1%
66 | O=C(N/N=C/c1ccc(Cl)cc1Cl)c1ccc2nc[nH]c2c1 | 18%

Row | Structure (SMILES) | hERG current change (%, negative = inhibition) at 10uM
67 | N#Cc1cc2ccccc2nc1SCC(=O)NC1CC1 | 4.58%
68 | c1ccc(-n2nnnc2Oc2ccc(-n3ccnc3)cc2)cc1 | -54%
69 | COc1ccc(N(CC(=O)NCCSc2ccccn2)S(=O)(=O)c2ccc(C)cc2)cc1OC | -17.7%
70 | CC(OC(=O)/C=C/c1ccccc1Cl)C(=O)NC1CCCCC1C (stereo not drawn) | 3.16%
71 | CCOC(=O)c1cccc(NC(=O)CSc2nnc(C3CCCCC3)n2C)c1 | -40%
72 | CC(=O)O.O=c1/c(=C\c2cccc(O)c2)sc2nc(-c3ccccc3)c(-c3ccccc3)n12 | 11%
73 | CCOC(=O)c1c(N2C(=O)Nc3ccccc3N2O)sc2c1CCCCC2 | 4%
74 | COc1ccc(N(CC(=O)Nc2cc(OC)ccc2OC)S(=O)(=O)c2c(C)nn(C)c2C)cc1 | -4.87%
75 | O=[N+]([O-])c1cccc(S(=O)(=O)Nc2ccc(Cc3ccncc3)cc2)c1 | -72.2%
76 | CN1CCc2nc(NC(=O)c3cccc(OC(F)F)c3)sc2C1 | 3.7%
77 | COc1ccc(C2=NO[C@H]3C[C@](C(=O)NC(C)C)(S(=O)(=O)c4ccccc4)C[C@@H]23)cc1 | -4.9%
78 | O=C(CSc1ncn[nH]1)c1ccc2c(c1)OCCO2 | 9.72%
79 | Cc1c(CCO)c(=O)n(C)n1C(=O)c1ccc(F)cc1 | 2.6%
80 | O=C(c1cccc(F)c1)n1nnc2ccccc21 | 19.3%
81 | COC(=O)[C@H](C)NC(=O)N1CCC(Cc2ccccc2)CC1 | 1.88%
82 | CC1CCc2cc(F)ccc2N1C(=O)c1cccnc1 (stereo not drawn) | 16.7%
83 | C/C(Cl)=C/CN1C(=O)C2C3C=CC(C3)C2C1=O (stereo not drawn) | -7.68%
84 | COc1ccc(Oc2ncc(CN3CCN(c4ccccc4)CC3)s2)cc1 | -0.385%
85 | O=C(CSc1nc2ccccc2[nH]1)c1ccc(Cl)s1 | 4.27%
86 | O=C(NNC(=S)NC(=O)c1cn(-c2ccccc2)nc1-c1ccccc1)c1ccncc1 | 25.4%
87 | Cn1c(=NC(=O)C2CC2)sc2cc(F)cc(F)c21 | -12.3%
